# Laboratory results reported in PubChem BioAssay AID624296 (National Center for Advancing Translational Sciences (NCATS), 2012).
# Where “and” joins values, the source holds several entries; their conditions need not be identical. Equal values may be shown once. In all, about 350,000 compounds went through this assay and about 9,900 (2.8%) were called active. Inconclusive results, whose numbers are uncertain, are shown with a selection of clear calls. Calls come from the whole dose curve; as a rule, active = well fitted activation curve with a large enough effect; inconclusive = small, poorly fitted or top-dose-only effect; inactive = no such curve, though single readings can be large or run the other way. Potencies beside an inconclusive call are fits to weak or partial responses and may not hold up. Some structures have more than one record in an assay (separate samples or runs), and their calls can disagree.
# Test: A quantitative high throughput screen for small molecules that induce DNA re-replication in MCF 10a normal breast cells. For activity, positive = re-replication: % of control where 0% means no effect. Note: nearly all actives have a fitted effect of over 50% in size.
# Conditions: MCF 10A DNA re-replication, Hoechst nuclear intensity, 48 h; activity, positive = re-replication: at 46.1 µM (top of the series)
# Potency is the fitted concentration of half-maximal effect; tags give direction and shape of the fitted curve.
SMILES,Potency,"activity, positive = re-replication"
Oc1ccc(Cl)cc1Cc1ccccc1,"inconclusive: 33.5 µM [activator, single point]",–
CCOc1ccc2nc(N(CCN(CC)CC)C(=O)c3ccc([N+](=O)[O-])cc3)sc2c1,"inconclusive: 25.9 µM [activator, single point]",–
Cc1cc(Cl)ccc1OCC(=O)O,"inconclusive: 0.103 µM [activator, full curve, poor fit]",–
Oc1ccc(Cl)cc1CN1CCN(Cc2ccccc2)CC1,"inconclusive: 29.1 µM [activator, single point]",–
COC(=O)C1=C(c2ccccc2OCc2ccccc2)C[C@@H]2CC[C@H]1N2C(=O)NCCOc1ccccc1,"inconclusive: 23.1 µM [activator, partial curve, poor fit]",–
CCC(=NCc1ccc2c(c1)OCO2)c1c(O)n(C2CCCCC2)c(=O)[nH]c1=O,"inconclusive: 25.9 µM [activator, partial curve, poor fit]",–
CCCCc1ccc(C(=O)O)nc1,"inactive and inconclusive: 33.5 µM [activator, partial curve, poor fit]",–
CC1([N+](=O)[O-])COP(=O)(Nc2cccc(Cl)c2)OC1 (centres undefined),inactive,–
COc1ccccc1CN1CCCC(C(=O)c2ccccc2SC)C1 (centres undefined),inactive,–
Cc1ccc(-c2cc(-c3ccc(C)cc3)[n+](-c3ccc(C(=O)O)cc3)c(-c3ccc(C)cc3)c2)cc1,"inconclusive: 0.184 µM [activator, full curve, poor fit]",–
Cc1ccc(C(=O)N/C(=C\Cl)P(=O)(c2ccccc2)c2ccccc2)cc1,"inconclusive: 6.51 µM [activator, single point]",–
COC(=O)C1=C(c2ccc(OC(F)(F)F)cc2)C[C@@H]2CC[C@H]1N2C(=O)NCCOc1ccccc1,"inconclusive: 18.4 µM [activator, partial curve, poor fit]",–
O=C(Nc1nnc(SCc2ccccc2Cl)s1)C1COc2ccccc2O1 (centres undefined),"inconclusive: 29.1 µM [activator, single point]",–
CN(Cc1ccccc1)C1CCCN(C(=O)COc2ccccc2Cl)C1 (centres undefined),inactive,–
S=P(NCCNP(=S)(N1CC1)N1CC1)(N1CC1)N1CC1,"inconclusive: 7.31 µM [activator, partial curve, poor fit]",–
CCOC(=O)c1c(NC(=O)C(c2ccccc2)c2ccccc2)sc2c1C1CCN2CC1,"inconclusive: 20.6 µM [activator, single point]",–
CC(=O)OC1CCC2(C)C(CCC3C2CC(=O)C2(C)C3CC(N3CC3)C2C(C)=O)C1 (centres undefined),"inconclusive: 20.6 µM [activator, single point]",–
CCCCCCn1c(=O)c(C(=O)Nc2nc(CC(=O)OCC)cs2)c(O)c2ccccc21,"inconclusive: 6.51 µM [activator, single point]",–
COc1cc(-n2c(=S)[nH]c3ccccc3c2=O)c(Cl)cc1Cl,"inconclusive: 29.1 µM [activator, single point]",–
O=[N+]([O-])c1ccc(Cl)c(Cl)c1Cl,"inconclusive: 0.291 µM [activator, partial curve, poor fit]",–
c1ccc2c(c1)cc1ccc3cccc4ccc2c1c34,"inconclusive: 5.8 µM [activator, full curve]",–
COc1cc(CNCCc2ccc3c(c2)OCO3)cc(OC)c1OC,"inconclusive: 13 µM [activator, partial curve, poor fit]",–

SMILES,Potency,"activity, positive = re-replication"
O=C1CC(CSc2ccc(Cl)cc2)=NN1,"inconclusive: 18.4 µM [activator, single point]",–
N#Cc1cc2c(nc1SCC(=O)Nc1cc(Cl)cc(Cl)c1)C1CCN2CC1,active: 2.31 µM,–
CCCCn1c(=O)c(C(=O)Nc2cccc(C)c2)c(O)c2ccccc21,inactive,–
COC(=O)C1=C(c2ccc(F)cc2OCc2ccccc2)C[C@@H]2CC[C@H]1N2C(=O)NCc1ccc(OC)c(OC)c1,"inconclusive: 6.51 µM [activator, single point]",–
COC(=O)C1=C(c2cccc(OCc3ccccc3)c2)C[C@@H]2CC[C@H]1N2C(=O)NCc1ccc2[nH]ccc2c1,active: 5.17 µM,–
COC(=O)C1=C(c2ccc(OCc3ccccc3)cc2)C[C@@H]2CC[C@H]1N2C(=O)NCc1ccccc1,"inconclusive: 6.51 µM [activator, partial curve, poor fit]",–
CC(=O)C12CC(C)=C(C)CC1CC1C3CCC4=CC(=O)CCC4(C)C3CCC12C (centres undefined),"inconclusive: 20.6 µM [activator, single point]",–
CC(N)Cc1cn(Cc2ccccc2)c2ccccc12 (centres undefined),"inconclusive: 13 µM [activator, partial curve, poor fit]",–
COC(=O)C1=C(c2cc3ccccc3s2)C[C@@H]2CC[C@H]1N2C(=O)N1CCCCC1,active: 18.4 µM,–
CCCCCCC(=O)N/N=C/c1c(O)n(C(C)CC)c(=S)[nH]c1=O (centres undefined),"inconclusive: 25.9 µM [activator, single point]",–
CC(C)(O)/C=C/C(=O)C(C)(O)C1C(O)CC2(C)C3CC=C4C(C=C(O)C(=O)C4(C)C)C3(C)C(=O)CC12C (centres undefined),active: 2.91 µM,–
CNCCCc1ccccc1,"inconclusive: 2.91 µM [activator, partial curve, poor fit]",–
COc1ccc(CNc2oc(-c3cccc4ccccc34)nc2P(=O)(OC)OC)cc1,active: 20.6 µM,–
O=c1[nH]c(=S)n(Cc2ccc(F)cc2)c(O)c1/C=N/N1CCCCCC1,"inconclusive: 18.4 µM [activator, single point]",–
O=C(O)c1cccc2c1NC(c1cccc([N+](=O)[O-])c1)C1CC(Sc3ccccc3[N+](=O)[O-])C(Cl)C21 (centres undefined),"inconclusive: 20.6 µM [activator, single point]",–
Brc1ccc2[nH]cc(/C=N/N3CCCCC3)c2c1,"inconclusive: 3.66 µM [activator, full curve]",–
CN(C)/C=C1/C(=O)NC(=O)N(CCNc2ncc(C(F)(F)F)cc2Cl)C1=O,"inconclusive: 29.1 µM [activator, single point]",–
CC1(C)C(C(=O)N2CCN(c3ccc(Cl)cc3)CC2)C1(C)C,inactive,–
C=C1C(C)C2C(Cc3ccccc3)NC(=O)C23C(OC(C)=O)C=CC(C)(O)CC(C)CC=CC3C1O (centres undefined),"inconclusive: 0.651 µM [activator, full curve, poor fit]",–
O=C(COc1ccc(Br)cc1)N1CCN(Cc2ccc3c(c2)OCO3)CC1,inactive,–
CCC(=Nc1ccc(OC)cc1OC)c1c(O)[nH]c(=O)[nH]c1=O,"inconclusive: 20.6 µM [activator, partial curve, poor fit]",–
CCC(C(=O)OCCOCCN(CC)CC)c1ccccc1 (centres undefined),"inconclusive: 33.5 µM [activator, single point]",–

SMILES,Potency,"activity, positive = re-replication"
O=C(c1cccc(C(F)(F)F)c1)C1CCCN(Cc2ncc[nH]2)C1 (centres undefined),"inconclusive: 13 µM [activator, partial curve, poor fit]",–
COc1cc2c3cc1Oc1cc(ccc1O)C[C@@H]1c4c(cc(OC)c(O)c4Oc4ccc(cc4)C[C@H]3N(C)CC2)CCN1C,active: 18.4 µM,–
CCC(C)n1c(O)c(/C=N/NC(=O)c2ccncc2)c(=O)[nH]c1=S (centres undefined),inactive,–
Cc1ccc(N=Nc2cc(C)ccc2N)cc1,"inconclusive: 25.9 µM [activator, partial curve, poor fit]",–
Fc1ccccc1CCNCc1cccc2ccccc12,"inconclusive: 16.4 µM [activator, partial curve, poor fit]",–
[O]=[Cr](=[O])([OH])[O][Cr](=[O])(=[O])[OH],"inconclusive: 10.6 µM [activator, full curve, poor fit] and active: 11.9 µM",–
COc1ccc(-c2cc(=Nc3ccccc3)c3cc(C)ccc3o2)cc1,"inconclusive: 10.3 µM [activator, partial curve, poor fit]",–
CCCCn1c(NS(=O)(=O)c2ccc(C)cc2)c(C(=O)OCC)c2nc3ccccc3nc21,"inconclusive: 16.4 µM [activator, partial curve, poor fit]",–
Cc1ccc(C2CC3CCC(C2)N3Cc2ccccc2F)cc1 (centres undefined),"inconclusive: 23.1 µM [activator, single point]",–
Cc1ccc2c(c1)[C@@H]1CN(C)CC[C@@H]1N2C(=O)Nc1cccc(C(F)(F)F)c1,inactive,–
O=C(Cc1ccccc1)N1CCN(CC2CC3C=CC2C3)CC1 (centres undefined),"inconclusive: 29.1 µM [activator, single point]",–
C=CCn1c(O)c(C(=O)CCCCCC)c(=O)[nH]c1=O,"inconclusive: 18.4 µM [activator, single point]",–
CCN(CC)C(=O)c1ccc(NC(=O)COc2ccccc2F)cc1,–,inactive: -1.33% [at 9.22 µM]
COc1ccc2[nH]cc(CCNCc3cccnc3)c2c1,inactive,–
CN1CC(C(=O)c2ccc([N+](=O)[O-])cc2)C(c2ccc(Cl)cc2)C1 (centres undefined),inactive,–
CC1CCN(c2ccccc2NC(=O)c2cc3ccccc3o2)CC1,"inconclusive: 14.6 µM [activator, partial curve, poor fit]",–
CCN1C(=O)C(=C2C=C(C)N(Cc3ccco3)C(C)=C2)C(=O)N(CC)C1=S,active: 13 µM,–
O=C(O)c1cccc(NC(=O)N2C[C@H]3C[C@@H](C2)c2cccc(=O)n2C3)c1,"inconclusive: 0.0041 µM [activator, full curve, poor fit]",–
O=[N+]([O-])c1cnc2ccc3ccccc3c2c1,inactive,–
CC(C)(C)n1cccc1/C=C1\C(=O)NC(=O)N(c2ccccc2)C1=O,inactive,–
